{"source": "the supplement of paper PMC8728848", "experiment_in_all_cases": "glycan array binding signal (z-score within array); higher = stronger binding", "settings_in_all_cases": "glycan notation: IUPAC condensed, linker removed", "key": {"[1]": {"biological_target": "Neu5Ac(a2-3)Gal(b1-3)GalNAc", "outline": "(§1)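 Glycan array data came from 3228 arrays in the Consortium for Functional Glycomics database, and only arrays with an available protein sequence were kept. Glycan names were put into IUPAC-condensed notation, and columns mapping to the same glycan were averaged. The binding signal is a within-array Z-score, averaged across arrays of one protein sequence run at different concentrations or buffers and across linkers. A negative Z-score can be read as non-binding.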"}, "[2]": {"biological_target": "Neu5Ac(a2-3)Gal(b1-3)GalNAc(b1-3)Gal(a1-4)Gal(b1-4)Glc", "outline": "as §1"}, "[3]": {"biological_target": "Neu5Ac(a2-3)Gal(b1-3)GalNAc(b1-4)Gal(b1-4)Glc", "outline": "as §1"}, "[4]": {"biological_target": "Neu5Ac(a2-3)Gal(b1-3)GalNAc(b1-4)[Neu5Ac(a2-3)]Gal(b1-4)Glc", "outline": "as §1"}, "[5]": {"biological_target": "Neu5Ac(a2-3)Gal(b1-3)GalNAc(b1-4)[Neu5Ac(a2-8)Neu5Ac(a2-3)]Gal(b1-4)Glc", "outline": "as §1"}, "[6]": {"biological_target": "Neu5Ac(a2-3)Gal(b1-3)GalNAc6S", "outline": "as §1"}, "[7]": {"biological_target": "Neu5Ac(a2-3)Gal(b1-3)GlcNAc", "outline": "as §1"}, "[8]": {"biological_target": "Neu5Ac(a2-3)Gal(b1-3)GlcNAc(b1-2)Man", "outline": "as §1"}, "[9]": {"biological_target": "Neu5Ac(a2-3)Gal(b1-3)GlcNAc(b1-2)Man(a1-3)[GlcNAc(b1-4)][Neu5Ac(a2-3)Gal(b1-3)GlcNAc(b1-2)Man(a1-6)]Man(b1-4)GlcNAc(b1-4)GlcNAc", "outline": "as §1"}, "[10]": {"biological_target": "Neu5Ac(a2-3)Gal(b1-3)GlcNAc(b1-2)Man(a1-3)[Neu5Ac(a2-3)Gal(b1-3)GlcNAc(b1-2)Man(a1-6)]Man(b1-4)GlcNAc(b1-4)GlcNAc", "outline": "as §1"}, "[11]": {"biological_target": "Neu5Ac(a2-3)Gal(b1-3)GlcNAc(b1-2)[Neu5Ac(a2-3)Gal(b1-3)GlcNAc(b1-4)]Man(a1-6)[Neu5Ac(a2-3)Gal(b1-3)GlcNAc(b1-2)Man(a1-3)]Man(b1-4)GlcNAc(b1-4)GlcNAc", "outline": "as §1"}, "[12]": {"biological_target": "Neu5Ac(a2-3)Gal(b1-3)GlcNAc(b1-3)Gal(b1-3)GlcNAc", "outline": "as §1"}, "[13]": {"biological_target": "Neu5Ac(a2-3)Gal(b1-3)GlcNAc(b1-3)Gal(b1-4)GlcNAc", "outline": "as §1"}, "[14]": {"biological_target": "Neu5Ac(a2-3)Gal(b1-3)GlcNAc(b1-3)GalNAc", "outline": "as §1"}, "[15]": {"biological_target": "Neu5Ac(a2-3)Gal(b1-3)GlcNAc(b1-6)GalNAc", "outline": "as §1"}, "[16]": {"biological_target": "Neu5Ac(a2-3)Gal(b1-3)GlcNAc6S", "outline": "as §1"}, "[17]": {"biological_target": "Neu5Ac(a2-3)Gal(b1-3)[Fuc(a1-4)]GlcNAc", "outline": "as §1"}, "[18]": {"biological_target": "Neu5Ac(a2-3)Gal(b1-3)[Fuc(a1-4)]GlcNAc(b1-3)Gal(b1-3)[Fuc(a1-4)]GlcNAc", "outline": "as §1"}, "[19]": {"biological_target": "Neu5Ac(a2-3)Gal(b1-3)[Fuc(a1-4)]GlcNAc(b1-3)Gal(b1-4)[Fuc(a1-3)]GlcNAc", "outline": "as §1"}, "[20]": {"biological_target": "Neu5Ac(a2-3)Gal(b1-3)[GlcNAc(b1-6)]GalNAc", "outline": "as §1"}, "[21]": {"biological_target": "Neu5Ac(a2-3)Gal(b1-3)[Neu5Ac(a2-6)]GalNAc", "outline": "as §1"}, "[22]": {"biological_target": "Neu5Ac(a2-3)Gal(b1-3)[Neu5Ac(a2-6)]GlcNAc(b1-3)[Fuc(a1-3)[Gal(b1-4)]GlcNAc(b1-6)]Gal(b1-4)Glc", "outline": "as §1"}, "[23]": {"biological_target": "Neu5Ac(a2-3)Gal(b1-3)]Neu5Ac(a2-3)Gal(b1-4)]GlcNAc", "outline": "as §1"}, "Neu5Ac(a2-3)Gal(b1-4)Glc": {"biological_target": "Neu5Ac(a2-3)Gal(b1-4)Glc", "outline": "as §1"}, "[24]": {"biological_target": "Neu5Ac(a2-3)Gal(b1-4)GlcNAc", "outline": "as §1"}, "[25]": {"biological_target": "Neu5Ac(a2-3)Gal(b1-4)GlcNAc(b1-2)Man", "outline": "as §1"}, "[26]": {"biological_target": "Neu5Ac(a2-3)Gal(b1-4)GlcNAc(b1-2)Man(a1-3)[GlcNAc(b1-4)][Neu5Ac(a2-3)Gal(b1-4)GlcNAc(b1-2)Man(a1-6)]Man(b1-4)GlcNAc(b1-4)GlcNAc", "outline": "as §1"}, "[27]": {"biological_target": "Neu5Ac(a2-3)Gal(b1-4)GlcNAc(b1-2)Man(a1-3)[Neu5Ac(a2-3)Gal(b1-4)GlcNAc(b1-2)Man(a1-6)]Man(b1-4)GlcNAc(b1-4)GlcNAc", "outline": "as §1"}, "[28]": {"biological_target": "Neu5Ac(a2-3)Gal(b1-4)GlcNAc(b1-2)Man(a1-3)[Neu5Ac(a2-3)Gal(b1-4)GlcNAc(b1-2)Man(a1-6)]Man(b1-4)GlcNAc(b1-4)[Fuc(a1-6)]GlcNAc", "outline": "as §1"}, "[29]": {"biological_target": "Neu5Ac(a2-3)Gal(b1-4)GlcNAc(b1-2)Man(a1-3)[Neu5Ac(a2-6)Gal(b1-4)GlcNAc(b1-2)Man(a1-6)]Man(b1-4)GlcNAc(b1-4)GlcNAc", "outline": "as §1"}, "[30]": {"biological_target": "Neu5Ac(a2-3)Gal(b1-4)GlcNAc(b1-2)[Neu5Ac(a2-3)Gal(b1-4)GlcNAc(b1-4)]Man(a1-3)[GlcNAc(b1-4)][Neu5Ac(a2-3)Gal(b1-4)GlcNAc(b1-2)[Neu5Ac(a2-3)Gal(b1-4)GlcNAc(b1-6)]Man(a1-6)]Man(b1-4)GlcNAc(b1-4)GlcNAc", "outline": "as §1"}, "[31]": {"biological_target": "Neu5Ac(a2-3)Gal(b1-4)GlcNAc(b1-2)[Neu5Ac(a2-3)Gal(b1-4)GlcNAc(b1-4)]Man(a1-3)[GlcNAc(b1-4)][Neu5Ac(a2-3)Gal(b1-4)GlcNAc(b1-4)Man(a1-6)]Man(b1-4)GlcNAc(b1-4)GlcNAc", "outline": "as §1"}, "[32]": {"biological_target": "Neu5Ac(a2-3)Gal(b1-4)GlcNAc(b1-2)[Neu5Ac(a2-3)Gal(b1-4)GlcNAc(b1-6)]Man(a1-6)[Neu5Ac(a2-3)Gal(b1-4)GlcNAc(b1-2)Man(a1-3)][GlcNAc(b1-4)]Man(b1-4)GlcNAc(b1-4)GlcNAc", "outline": "as §1"}, "[33]": {"biological_target": "Neu5Ac(a2-3)Gal(b1-4)GlcNAc(b1-3)Gal", "outline": "as §1"}, "[34]": {"biological_target": "Neu5Ac(a2-3)Gal(b1-4)GlcNAc(b1-3)Gal(b1-3)GlcNAc", "outline": "as §1"}, "[35]": {"biological_target": "Neu5Ac(a2-3)Gal(b1-4)GlcNAc(b1-3)Gal(b1-4)GlcNAc", "outline": "as §1"}, "[36]": {"biological_target": "Neu5Ac(a2-3)Gal(b1-4)GlcNAc(b1-3)Gal(b1-4)GlcNAc(b1-2)Man(a1-3)[Neu5Ac(a2-3)Gal(b1-4)GlcNAc(b1-3)Gal(b1-4)GlcNAc(b1-2)Man(a1-6)]Man(b1-4)GlcNAc(b1-4)GlcNAc", "outline": "as §1"}}, "note": "This is one part of the list.", "data": [{"binder": "B160 (Bifidobacterium sp) (protein) MVSHNKRIVAALAAVAAMGIGLAGCGGSDTAGDTKSGSDGGVVNITYMHRLPDSEGMTLVNDIVAKWNKEHPNIQVKATKFDGNAADMIKKLETDVKAGNAPDLAQVGYAEVPEVFTKGLLQDVTDEAAKYKDDFASGPFALMQVDGKTYGLPQDTGPLTYFYNAAEFEKLGITVPKTADELIETAKKTAAQGKYIMTFTPDEAMMMMSGQAGASGPWYKVDGNSWVVNTQTKGSKAVADVYQQLIDNKAALTNPRWDASFDNSIQSGQLIGTVAAAWEAPLFIDSAGGTGAGEWKVTQLGDWFGNGTKTGANGGSGVAVLKGSKHPAEAMEFLDWFNTQVDDLVSQGLVVAATTADAKTPQKWSDYFSGQDVMAEFKTANDNMGDFTYMPGFSAVGAAMKQTAAKAADGSAKVSDVFDTAQKTSVDTLKNLGLSVKE", "values": [{"measurement": "glycan array binding signal (z-score)", "setting": "[1]", "result": -0.204}, {"measurement": "glycan array binding signal (z-score)", "setting": "[2]", "result": -0.163}, {"measurement": "glycan array binding signal (z-score)", "setting": "[3]", "result": -0.19}, {"measurement": "glycan array binding signal (z-score)", "setting": "[4]", "result": -0.16}, {"measurement": "glycan array binding signal (z-score)", "setting": "[5]", "result": -0.156}, {"measurement": "glycan array binding signal (z-score)", "setting": "[6]", "result": -0.165}, {"measurement": "glycan array binding signal (z-score)", "setting": "[7]", "result": -0.172}, {"measurement": "glycan array binding signal (z-score)", "setting": "[8]", "result": -0.194}, {"measurement": "glycan array binding signal (z-score)", "setting": "[9]", "result": -0.177}, {"measurement": "glycan array binding signal (z-score)", "setting": "[10]", "result": -0.173}, {"measurement": "glycan array binding signal (z-score)", "setting": "[11]", "result": -0.099}, {"measurement": "glycan array binding signal (z-score)", "setting": "[12]", "result": -0.167}, {"measurement": "glycan array binding signal (z-score)", "setting": "[13]", "result": -0.164}, {"measurement": "glycan array binding signal (z-score)", "setting": "[14]", "result": -0.188}, {"measurement": "glycan array binding signal (z-score)", "setting": "[15]", "result": -0.161}, {"measurement": "glycan array binding signal (z-score)", "setting": "[16]", "result": -0.173}, {"measurement": "glycan array binding signal (z-score)", "setting": "[17]", "result": -0.184}, {"measurement": "glycan array binding signal (z-score)", "setting": "[18]", "result": -0.135}, {"measurement": "glycan array binding signal (z-score)", "setting": "[19]", "result": -0.153}, {"measurement": "glycan array binding signal (z-score)", "setting": "[20]", "result": -0.163}, {"measurement": "glycan array binding signal (z-score)", "setting": "[21]", "result": -0.176}, {"measurement": "glycan array binding signal (z-score)", "setting": "[22]", "result": -0.173}, {"measurement": "glycan array binding signal (z-score)", "setting": "[23]", "result": -0.167}, {"measurement": "glycan array binding signal (z-score)", "setting": "Neu5Ac(a2-3)Gal(b1-4)Glc", "result": -0.173}, {"measurement": "glycan array binding signal (z-score)", "setting": "[24]", "result": -0.174}, {"measurement": "glycan array binding signal (z-score)", "setting": "[25]", "result": -0.13}, {"measurement": "glycan array binding signal (z-score)", "setting": "[26]", "result": -0.16}, {"measurement": "glycan array binding signal (z-score)", "setting": "[27]", "result": -0.149}, {"measurement": "glycan array binding signal (z-score)", "setting": "[28]", "result": -0.158}, {"measurement": "glycan array binding signal (z-score)", "setting": "[29]", "result": -0.194}, {"measurement": "glycan array binding signal (z-score)", "setting": "[30]", "result": -0.153}, {"measurement": "glycan array binding signal (z-score)", "setting": "[31]", "result": -0.109}, {"measurement": "glycan array binding signal (z-score)", "setting": "[32]", "result": -0.18}, {"measurement": "glycan array binding signal (z-score)", "setting": "[33]", "result": -0.166}, {"measurement": "glycan array binding signal (z-score)", "setting": "[34]", "result": -0.171}, {"measurement": "glycan array binding signal (z-score)", "setting": "[35]", "result": -0.176}, {"measurement": "glycan array binding signal (z-score)", "setting": "[36]", "result": -0.121}]}]}
